# Test results taken from paper PMC4336329 (PLoS ONE, 2015).
# In all, about 310,000 compounds went through this assay and about 14,000 (4.5%) showed an effect of 50% or more. The effect is printed as a negative number. This is one part of the list.
# Target: human ether-à-go-go-related gene (hERG) potassium channel (human, UniProt Q12809)
# Assay: primary screen, population patch clamp on CHO cells stably expressing hERG
# 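Also: peak tail current of the secondary pulse compared with the same well before compound.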
# human ether-à-go-go-related gene (hERG) potassium channel, sequence (Q12809 whole entry, looked up): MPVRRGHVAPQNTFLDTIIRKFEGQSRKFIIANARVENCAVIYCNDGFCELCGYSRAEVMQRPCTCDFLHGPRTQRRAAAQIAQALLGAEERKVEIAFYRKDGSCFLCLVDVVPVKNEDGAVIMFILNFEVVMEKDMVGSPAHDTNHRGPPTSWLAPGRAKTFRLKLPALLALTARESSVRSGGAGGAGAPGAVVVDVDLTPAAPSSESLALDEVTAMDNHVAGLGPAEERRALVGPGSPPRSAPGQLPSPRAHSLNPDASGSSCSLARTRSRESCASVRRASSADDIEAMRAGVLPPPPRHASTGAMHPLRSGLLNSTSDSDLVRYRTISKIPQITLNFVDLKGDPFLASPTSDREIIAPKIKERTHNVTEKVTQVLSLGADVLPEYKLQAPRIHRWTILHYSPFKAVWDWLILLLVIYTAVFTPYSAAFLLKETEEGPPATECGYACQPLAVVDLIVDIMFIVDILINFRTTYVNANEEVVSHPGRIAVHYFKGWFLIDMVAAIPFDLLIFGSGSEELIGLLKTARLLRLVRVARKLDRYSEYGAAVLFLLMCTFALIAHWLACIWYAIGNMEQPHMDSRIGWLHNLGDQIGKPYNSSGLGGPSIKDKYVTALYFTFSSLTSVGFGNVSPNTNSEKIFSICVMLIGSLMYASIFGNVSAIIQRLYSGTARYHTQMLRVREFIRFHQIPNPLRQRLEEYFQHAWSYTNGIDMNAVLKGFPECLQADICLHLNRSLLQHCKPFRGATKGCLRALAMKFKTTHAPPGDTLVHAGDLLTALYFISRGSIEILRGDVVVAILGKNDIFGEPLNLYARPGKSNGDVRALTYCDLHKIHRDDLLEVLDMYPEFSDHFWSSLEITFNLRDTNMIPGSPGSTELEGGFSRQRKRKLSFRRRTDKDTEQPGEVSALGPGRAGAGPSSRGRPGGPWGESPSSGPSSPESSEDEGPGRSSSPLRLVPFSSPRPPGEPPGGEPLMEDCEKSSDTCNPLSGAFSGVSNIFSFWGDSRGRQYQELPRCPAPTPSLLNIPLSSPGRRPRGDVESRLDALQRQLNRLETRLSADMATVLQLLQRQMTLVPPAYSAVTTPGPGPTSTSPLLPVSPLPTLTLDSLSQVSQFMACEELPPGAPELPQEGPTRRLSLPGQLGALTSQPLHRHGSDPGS
row,Structure (SMILES),"hERG current change (%, negative = inhibition) at 10uM"
1,O=S(=O)(c1ccc2c(c1)CCN2)N1CCCC1,-1.58%
2,C=C(C)CSc1nc2nc(C)cc(C)n2n1,4.09%
3,CN(C)S(=O)(=O)c1ccc(C(=O)Nc2ccc(S(=O)(=O)NC3=NCCCCC3)cc2)cc1,-10.3%
4,COC(=O)c1ccc(CNC(=O)COC(=O)c2ccccc2-c2ccccc2)cc1,-20.6%
5,O=C(COC(=O)c1n[nH]c(=O)c2ccccc12)c1ccc(Cl)cc1,8.49%
6,CN(C)S(=O)(=O)c1cccc(-c2nnc(-c3ccccc3)o2)c1,-4.52%
7,O=C(c1cc2cc(Br)cc(Br)c2oc1=O)N1CCOCC1,-17.7%
8,CN(C)CCCNC1CS(=O)(=O)CC1O.Cl (stereo not shown),6.43%
9,O=C(O)c1cc2c(s1)-c1ccccc1CC2,1.71%
10,Cc1ccc(NS(=O)(=O)c2cccc(C(=O)N3CCN(c4ncccn4)CC3)c2)cc1,6.31%
11,CCCCNC(=O)c1onc(CSc2ccccc2F)c1C(=O)O,17.9%
12,Cc1c(NC(=S)N/C(=N/S(=O)(=O)c2ccccc2)c2ccccc2)c(=O)n(-c2ccccc2)n1C,20.2%
13,O=C(CN1CCOCC1)NNc1nc(-c2ccccc2)c2cc(Br)ccc2n1,-38.7%
14,Cc1ccc(S(=O)(=O)Nc2ccc3nc(N)sc3c2)cc1,-11%
15,Cc1cc(CNC(=O)c2cccc([N+](=O)[O-])c2)c2ccccc2n1,6.72%
16,COc1cccc(NC(=O)CN2CCN(C(=O)c3ccco3)CC2)c1,13.4%
17,C=CCNC(=O)CSc1nc2ccccc2c(=O)n1CCc1ccc(OC)c(OC)c1,-15.4%
18,CCOc1ccc(-c2nnc(-c3cccs3)o2)cc1,11%
19,Cn1c(Sc2ccc(C(=O)O)cc2[N+](=O)[O-])nnc1-c1ccccc1,-6.68%
20,Cc1ccc(C2(O)CCN3CCCCC32)cc1 (stereo not shown),12.6%
21,COc1ccc(CNCc2c(C(=O)N(C)C)nc3ccc(Cl)cn23)c(OC)c1,-11.1%
22,Cc1cccc(C)c1NC1=NC(C)(C)N=C(N)N1,7.79%
23,O=C(c1cccc(S(=O)(=O)N2CCOCC2)c1)N1CCOCC1,29.3%
24,O=c1[nH]c(O)c(C=NC2CCCCC2)c(=O)[nH]1,1.32%
25,COc1ccc(NS(=O)(=O)c2cccc(C(=O)Nc3cccc(C(=O)O)c3)c2)cc1,27.8%
